Assay results as given in PubChem BioAssay AID1508624 (National Center for Advancing Translational Sciences (NCATS), 2021).
Screen size: about 48,000 compounds; about 120 (0.25%) were called active. Inconclusive results (about 4%) are left out. The call rests on the fitted dose curve; in most records, active means well fitted activation curve with a large enough effect; inconclusive means small, poorly fitted or top-dose-only effect, or another doubt; inactive means no such curve, though single readings can be large or run the other way. Some of the results follow.

Assay: Primary qHTS for Identification of Small Molecule Activators of Huntingtin-Antisense Promoter Activity; further: nearly all actives have a fitted effect of over 55% in size
Conditions: HEK293 HTT-AS promoter firefly luciferase reporter (activity 0% = vehicle and -100% = no light), 24 h; series mostly up to 57.5 µM; activity change, positive = activation: at the top concentration
Procedure, shortened: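 HEK293 cells carrying firefly luciferase reporters were seeded at 2,500 per well in Opti-MEM and cultured for 24 h. They were then treated with compounds at up to 57.5 uM final for 24 h at 37 degrees C before Dual-Glo luminescence readout.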

Activity change, positive = activation, inactive:
Cc1c(C2=CCN(S(=O)(=O)c3ccc(Cl)cc3)CC2)c2ccccc2n1CC(=O)N1CCCC1 -27.6%
CCOc1ccccc1CNC(=O)C1CCN(c2nnc(C)c3c(C)n(-c4ccc(C)cc4)nc23)CC1 -40.7%
CCC1CCCCN1C(=O)CSc1n[nH]c(-c2ccccc2)n1 (stereo not drawn) 27.3%
COc1ccc(N(Cc2nnc3n2CCCCC3)C(=O)Nc2ccc(Cl)cc2)cc1Cl -8.12%
CC(=O)Nc1ccc(Nc2nc3ccc(Cl)cc3n3cnnc23)cc1 0.569%
CNC(=O)c1ccc(-c2nc(CN3CCc4ccccc43)c(C)o2)cc1 -13.5%
Cc1cccc(OCC(=O)Nc2ccc(OCc3cc(=O)n4cc(C)ccc4n3)cc2)c1 -0.0748%
Cc1c(Cl)cccc1NC(=O)C(C)n1nc(C)c2c(C)n(-c3ccccc3)nc2c1=O (stereo not drawn) -20.8%
C=C1C(=O)OC2C=C(C)CCC=C(C)CCC12 (stereo not drawn) -12.2%
COc1ccc(S(=O)(=O)N(Cc2nc(-c3ccccc3)no2)C2CCCCC2)cc1 -22.8%
Cc1cc(O)c2ccccc2c1O -83.6%
Fc1ccc(Nc2nc(SCc3ccc(Cl)cc3)nc3ccccc23)cc1 -31.8%
Cc1ccccc1C(=O)NCC(c1ccc(N(C)C)cc1)N1CCCC1 (stereo not drawn) 18.4%
Cc1cccc(-c2noc(-c3cccnc3NCc3ccccc3Cl)n2)c1 10.6%
O=S(=O)(NCC(c1ccco1)S(=O)(=O)c1ccccc1)c1cc(F)ccc1F (stereo not drawn) -0.974%
CNC(=O)C1CCC(Cn2c(=O)c3sccc3n(CC(=O)N3CCCCC3C)c2=O)CC1 (stereo not drawn) -5.49%
COc1cc(C2CC(=O)N(c3ccc(C)c(Cl)c3)C3=C2C(=O)OC3)cc(OC)c1OC (stereo not drawn) -19.2%
O=C(CCS(=O)(=O)c1ccc(Br)s1)Nc1c(F)cccc1F -23.2%
CCc1ccccc1N1CC(c2nc3ccccc3n2CCCCOc2ccccc2OC)CC1=O (stereo not drawn) -18.9%
Cc1noc(Cn2c(=O)c3cc4c(cc3n(CC(=O)Nc3ccc(C(C)C)cc3)c2=O)OCO4)n1 -23.5%
CC(C)NC(=O)Cc1csc2nc(-c3ccccc3)cn12 22.5%
COc1cccc(-c2cc(C(F)(F)F)n3nc(-c4ccc(C)cc4)cc3n2)c1 -22.9%
CNS(=O)(=O)c1ccc(NC(=O)c2nc3nc(C)cc(C(F)F)n3n2)cc1 -20.5%
CCN(c1ccccc1)S(=O)(=O)c1ccc(NC(=O)c2cc(=O)c3c(C)cc(C)cc3o2)cc1 0.0695%
O=C1CCc2cc(S(=O)(=O)NC(C(=O)Nc3ccc(F)cc3)c3ccccc3)ccc2N1 (stereo not drawn) 8.68%
Cc1nc2nc(CNC(=O)c3cccc(F)c3)nn2c(C)c1CCC(=O)Nc1ccc(F)cc1 4.4%
CCOc1ccc(NS(=O)(=O)c2ccc3[nH]cc(C(=O)N4CCCC4)c(=O)c3c2)cc1 -20.8%
CC(C)c1cnc2c(c1SCc1ccc([N+](=O)[O-])cc1)c(=O)n(C)c(=O)n2C -1.88%
O=c1n(Cc2ccccc2)nc2n1-c1ccccc1OC2 11.3%
O=c1ccc2ccccc2o1 2.46%
COc1cc2c(cc1OC)C(COc1ccc(F)cc1)N(C(=O)C(C)C)CC2 (stereo not drawn) -29.7%
CCn1cnc2c(=O)oc3ccc(S(=O)(=O)N4CCN(c5cc(C)ccc5C)CC4)cc3c21 -8.98%
O=S(=O)(NCCc1ccc(Cl)cc1)c1ccc(N2CCCCS2(=O)=O)cc1 -14.9%
COc1ccc(C2=C(C)C(=O)N(Cc3ccc(C(=O)NCc4ccccc4C)cc3)S2(=O)=O)cc1 -32.2%
CCOc1ccc(NC(=O)CCn2c(-c3ccc(F)cc3)cc(C(C)=O)c2C)cc1 -22.1%
Cc1ccc(C2C=C(c3ccc(Cl)cc3)Nc3nc(NC(=O)CCC(=O)O)nn32)cc1 (stereo not drawn) -2.54%
O=C(CSc1nnc(-c2ccccc2)c(-c2ccccc2)n1)Nc1ccccc1Cl -28.2%
CCCOc1ccc(C(=O)Nc2cc3nn(-c4ccc(CC)cc4)nc3cc2C)cc1 18%
COc1ccccc1OCCCn1c(-c2ccc(Cl)cc2)nc2ccccc2c1=O -5.71%
CCC(C)Cn1c(COc2ccc(OC)cc2)nc2ccccc21 (stereo not drawn) 10.6%
Nc1ccc(C(=O)Nc2cccc(-c3nc(N4CCOCC4)c4oc5ncccc5c4n3)c2)cn1 -28.1%
CCOC(=O)c1ccc(NC(=O)Nc2cccc(OCc3cc(=O)n4ccc(C)cc4n3)c2)cc1 14.6%
COc1ccc(NC(=O)CCc2nc3cccnc3n2Cc2cccs2)c(OC)c1 -17.4%
CCC(=O)N[C@H]1CC[C@H](C(=O)N(C)c2ccc(-c3nc4ccccc4o3)cc2)C1 -13%
CCCCOc1ccc(NC(=O)CSc2ccc(C(=O)O)cn2)cc1 27.7%
Cc1cc(N2CCN(c3ccccc3F)CC2)n2cnnc2n1 -35.3%
O=C(NCc1ccc(F)cc1)c1ccc2c(c1)N(Cc1ccc(F)cc1Cl)C(=O)CS2 -12.9%
CCCSc1ncc(Cl)c(C(=O)Nc2ccc(OC)cc2OC)n1 -11.4%
O=C(NCCn1cc(SCc2ccc(C(F)(F)F)cc2)c2ccccc21)c1ccccc1F -41.9%
COc1cccc(CNC(=O)CCn2ccc3cc(S(=O)(=O)N4CCCC4)ccc32)c1 -2.46%
Cc1ccc(CN2C(=O)SC(Nc3ccccc3)C2=O)cc1 (stereo not drawn) -13.4%
O=C(C1CCN(S(=O)(=O)c2cccc3nonc23)CC1)N1CCN(c2ccc(F)cc2)CC1 -30.3%
CCOc1ccc(CNC(=O)CCS(=O)(=O)c2cc3c4c(c2)CCN4C(=O)CC3)cc1 -11.8%
CCOC(=O)c1c(C)oc2ncnc(Nc3ccc(CC)cc3)c12 3.94%
CC1CCN(C(=O)CN2CCSc3ccc(S(=O)(=O)N(C)C)cc32)CC1 -21.2%
CN(C)CCCN1c2ccccc2Sc2ccc(Cl)cc21 -34.9%
Cc1cc(C)cc(OC(=O)c2cc(-c3ccc4c(c3)OCCO4)on2)c1 6.55%
COc1ccc(/C=C/c2nc(-c3ccccc3O)n(-c3ccccc3)n2)cc1OC -19.5%
CCC(=O)N1CCc2cc(S(=O)(=O)NCCC(=O)NC(C)c3ccccc3)ccc21 (stereo not drawn) 10.7%
CC(=O)c1ccc(NC(=O)C(Cc2ccccc2)NS(=O)(=O)c2ccc3c(c2)CCC(=O)N3)cc1 (stereo not drawn) -7.25%
CCOC(=O)Cc1c(C)nc2c(-c3ccc(OC)c(OC)c3)c(C)nn2c1C -19.4%
CCOC(=O)CC(NC(=O)c1cc2cc(OC)ccc2oc1=O)c1ccc(OC)cc1 (stereo not drawn) -3.18%
Cc1cccc(C(=O)Nc2nnc(S(=O)(=O)N3CCC(C)CC3)s2)c1 -11.9%
